The text below walks through data of publication PMC5700166.

The list shows a part of the results, in another mix than the full data. The list includes weakly bound sequences.

Common to all, as to assay: protein-binding microarray (PBM)
Holding throughout (conditions): PBM: ~300 nM protein, 6 mM HEPES pH 7.8, 80 mM KCl, 0.5 mM EDTA, 0.5 mM EGTA, 6% glycerol, 35 ng/ul poly-dIdC, 1% milk, 1 h, room temperature; Ap Aiptasia and Nv Nematostella (sea anemones) / Co Capsaspora / Aq Amphimedon (sponge) / Dm Drosophila / Hu human; RHD is the Rel homology domain; high values mean tight binding; most listed sequences are background and not binding sites; double strand, one strand shown

One experiment deals with T1, GST-Ap-NF-kB RHD (UniProt A0A913YAJ5).
T1 sequence: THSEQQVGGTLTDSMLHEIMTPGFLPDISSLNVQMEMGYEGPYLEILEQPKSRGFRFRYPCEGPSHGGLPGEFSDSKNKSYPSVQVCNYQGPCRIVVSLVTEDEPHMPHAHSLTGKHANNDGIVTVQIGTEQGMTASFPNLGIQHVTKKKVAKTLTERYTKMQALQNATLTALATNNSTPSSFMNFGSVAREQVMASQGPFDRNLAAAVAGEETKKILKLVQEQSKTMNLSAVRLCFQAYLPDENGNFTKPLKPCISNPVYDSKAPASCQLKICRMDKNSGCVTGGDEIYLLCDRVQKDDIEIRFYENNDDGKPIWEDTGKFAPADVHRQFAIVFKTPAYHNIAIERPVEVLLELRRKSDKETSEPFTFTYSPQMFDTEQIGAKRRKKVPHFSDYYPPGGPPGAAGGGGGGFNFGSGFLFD

For experiment [1], the target named is T2, GST-Nv-NF-kB (Cys allele) (UniProt E5G601).
T2 sequence: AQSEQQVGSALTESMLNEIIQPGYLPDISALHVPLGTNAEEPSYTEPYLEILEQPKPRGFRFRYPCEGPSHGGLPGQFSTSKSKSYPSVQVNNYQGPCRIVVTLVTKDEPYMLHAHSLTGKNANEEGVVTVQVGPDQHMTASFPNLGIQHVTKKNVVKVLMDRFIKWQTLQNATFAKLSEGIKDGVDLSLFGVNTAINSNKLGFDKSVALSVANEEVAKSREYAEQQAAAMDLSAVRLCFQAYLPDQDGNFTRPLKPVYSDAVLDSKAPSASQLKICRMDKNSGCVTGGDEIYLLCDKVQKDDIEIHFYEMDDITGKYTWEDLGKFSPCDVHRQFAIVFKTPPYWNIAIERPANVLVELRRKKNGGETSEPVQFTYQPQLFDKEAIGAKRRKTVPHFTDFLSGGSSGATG

For another experiment, the target named is T3, GST-Co-NF-kB (UniProt F1ARL5).
T3 sequence: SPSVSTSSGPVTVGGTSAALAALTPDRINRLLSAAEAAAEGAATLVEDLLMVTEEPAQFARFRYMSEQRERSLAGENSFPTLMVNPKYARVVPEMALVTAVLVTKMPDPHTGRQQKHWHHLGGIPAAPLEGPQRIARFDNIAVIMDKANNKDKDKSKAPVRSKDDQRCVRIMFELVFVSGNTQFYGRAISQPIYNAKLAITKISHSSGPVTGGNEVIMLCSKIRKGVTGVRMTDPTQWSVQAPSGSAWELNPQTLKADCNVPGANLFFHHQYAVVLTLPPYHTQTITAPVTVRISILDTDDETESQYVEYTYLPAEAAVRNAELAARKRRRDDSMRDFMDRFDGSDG

The target of a further experiment is T4, GST-Dm-Relish (UniProt Q94527).
T4 sequence: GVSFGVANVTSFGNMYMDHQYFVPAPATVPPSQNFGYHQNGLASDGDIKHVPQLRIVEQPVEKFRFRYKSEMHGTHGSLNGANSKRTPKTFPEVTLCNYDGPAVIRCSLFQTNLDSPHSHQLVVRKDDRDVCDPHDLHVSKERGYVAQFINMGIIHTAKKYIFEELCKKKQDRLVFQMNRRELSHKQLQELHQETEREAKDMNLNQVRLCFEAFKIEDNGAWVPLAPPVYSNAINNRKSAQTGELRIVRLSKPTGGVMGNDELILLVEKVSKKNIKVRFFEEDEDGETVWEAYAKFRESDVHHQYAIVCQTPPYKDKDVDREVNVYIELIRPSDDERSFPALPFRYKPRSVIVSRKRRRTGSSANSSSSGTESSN

The next experiment addresses T5, GST-Aq-NF-kB (UniProt A9Y5G7).
T5 sequence: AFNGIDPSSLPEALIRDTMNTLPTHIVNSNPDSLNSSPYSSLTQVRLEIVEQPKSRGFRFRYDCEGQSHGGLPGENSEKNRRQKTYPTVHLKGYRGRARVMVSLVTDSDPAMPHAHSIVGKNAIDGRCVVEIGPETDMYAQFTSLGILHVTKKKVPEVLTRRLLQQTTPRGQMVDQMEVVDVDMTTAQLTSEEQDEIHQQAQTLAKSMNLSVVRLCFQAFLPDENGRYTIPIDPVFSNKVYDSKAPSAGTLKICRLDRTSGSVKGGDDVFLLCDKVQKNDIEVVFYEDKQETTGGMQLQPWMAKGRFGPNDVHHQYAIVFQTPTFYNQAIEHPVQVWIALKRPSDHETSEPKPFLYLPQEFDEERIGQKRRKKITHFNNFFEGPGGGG

Regarding “CCGATTAACATCAATGTCGGCCGTGATGTTAATCGGGTCTTGATTCGCTTGACGCTGCTG”, the binding signal is 0.191 z-score with GST-Ap-NF-kB RHD; -0.141 z-score in experiment [1]; -0.704 z-score in the experiment with GST-Co-NF-kB; -0.234 z-score in the experiment with GST-Dm-Relish; -0.336 z-score with GST-Aq-NF-kB.

In the case of “CCGATTAACATCAGAATTTCCACTGATGTTAATCGGGTCTTGATTCGCTTGACGCTGCTG”, the binding signal is -0.0504 z-score with GST-Ap-NF-kB RHD; -0.308 z-score in experiment [1]; -0.0916 z-score with GST-Co-NF-kB; 0.545 z-score with GST-Dm-Relish; 0.954 z-score with GST-Aq-NF-kB.

For the sequence “CCGATTAACATCAGATCACCACATGATGTTAATCGGGTCTTGATTCGCTTGACGCTGCTG”, the binding signal in the experiment with GST-Ap-NF-kB RHD was 0.0198 z-score; in experiment [1], -0.549 z-score; in the experiment with GST-Co-NF-kB it was 0.636 z-score; in the experiment with GST-Dm-Relish, -0.219 z-score; with GST-Aq-NF-kB it was -0.247 z-score.

“CCGATTAACATCAGCACCGTTGCTGATGTTAATCGGGTCTTGATTCGCTTGACGCTGCTG”: the binding signal with GST-Ap-NF-kB RHD is -0.45 z-score; in experiment [1], 0.0142 z-score; with GST-Co-NF-kB, -0.597 z-score; with GST-Dm-Relish it was -0.621 z-score; with GST-Aq-NF-kB, 0.0757 z-score.

On to “CCGATTAACATCAATTGGTCGAGTGATGTTAATCGGGTCTTGATTCGCTTGACGCTGCTG”, for which the binding signal was -0.0232 z-score in the experiment with GST-Ap-NF-kB RHD; -0.956 z-score in experiment [1]; -0.0329 z-score in the experiment with GST-Co-NF-kB; -0.189 z-score with GST-Dm-Relish; -0.195 z-score with GST-Aq-NF-kB.

Regarding “CCGATTAACATCAGCGAATTTCCTGATGTTAATCGGGTCTTGATTCGCTTGACGCTGCTG”, the binding signal is -0.14 z-score with GST-Ap-NF-kB RHD; -0.48 z-score in experiment [1]; -0.437 z-score with GST-Co-NF-kB; 0.174 z-score with GST-Dm-Relish; 0.0909 z-score with GST-Aq-NF-kB.

Consider “CCGATTAACATCATAGCCTGAGCTGATGTTAATCGGGTCTTGATTCGCTTGACGCTGCTG”, for which the binding signal with GST-Ap-NF-kB RHD was -0.632 z-score; in experiment [1], -0.865 z-score; with GST-Co-NF-kB, -0.68 z-score; with GST-Dm-Relish, -0.795 z-score; with GST-Aq-NF-kB, -0.427 z-score.

Turning to “CCGATTAACATCAAGGAATTCCGTGATGTTAATCGGGTCTTGATTCGCTTGACGCTGCTG”, the binding signal in the experiment with GST-Ap-NF-kB RHD is 0.373 z-score; in experiment [1], -0.0597 z-score; in the experiment with GST-Co-NF-kB it was 0.42 z-score; with GST-Dm-Relish it was 1.78 z-score; in the experiment with GST-Aq-NF-kB, 1.75 z-score.

As to “CCGATTAACATCACAAGCCGCCTTGATGTTAATCGGGTCTTGATTCGCTTGACGCTGCTG”, the binding signal in the experiment with GST-Ap-NF-kB RHD is 0.542 z-score; in experiment [1], -0.0381 z-score; with GST-Co-NF-kB it was -0.562 z-score; in the experiment with GST-Dm-Relish it was -0.486 z-score; with GST-Aq-NF-kB it was -0.439 z-score.

With “CCGATTAACATCAGGCACTAGTCTGATGTTAATCGGGTCTTGATTCGCTTGACGCTGCTG”, the binding signal in the experiment with GST-Ap-NF-kB RHD is -1.02 z-score; in experiment [1], -0.75 z-score; with GST-Co-NF-kB it was -0.872 z-score; in the experiment with GST-Dm-Relish, -1.06 z-score; with GST-Aq-NF-kB, -0.809 z-score.

Regarding “CCGATTAACATCAGCCTCAAGTGTGATGTTAATCGGGTCTTGATTCGCTTGACGCTGCTG”, the binding signal is -0.23 z-score with GST-Ap-NF-kB RHD; -0.522 z-score in experiment [1]; 0.0566 z-score with GST-Co-NF-kB; -0.357 z-score with GST-Dm-Relish; -0.541 z-score with GST-Aq-NF-kB.

Take “CCGATTAACATCATGCCTGAGGCTGATGTTAATCGGGTCTTGATTCGCTTGACGCTGCTG”: the binding signal with GST-Ap-NF-kB RHD is -0.486 z-score; in experiment [1], -0.497 z-score; with GST-Co-NF-kB it was -1.24 z-score; in the experiment with GST-Dm-Relish, -1 z-score; with GST-Aq-NF-kB, -0.787 z-score.

Regarding “CCGATTAACATCATCGATGCGTCTGATGTTAATCGGGTCTTGATTCGCTTGACGCTGCTG”, the binding signal with GST-Ap-NF-kB RHD is -0.299 z-score; in experiment [1] it was -0.607 z-score; in the experiment with GST-Co-NF-kB, -1.64 z-score; with GST-Dm-Relish, -0.607 z-score; in the experiment with GST-Aq-NF-kB, -0.7 z-score.

Turning to “CCGATTAACATCAGGAAATGCCATGATGTTAATCGGGTCTTGATTCGCTTGACGCTGCTG”, the binding signal in the experiment with GST-Ap-NF-kB RHD is -0.133 z-score; in experiment [1] it was -0.164 z-score; with GST-Co-NF-kB, -0.264 z-score; with GST-Dm-Relish, -0.0109 z-score; with GST-Aq-NF-kB, 0.921 z-score.
